According to the supplement of paper PMC12217912:
This is one part of the list. The full chains were built here from the parent and the listed change. Inactive controls read about 0.05.

B1: TEV protease; numbered along this chain (parent)
chain: MGESLFKGPRDYNPISSSICHLTNESDGHTTSLYGIGFGPFIITNKHLFRRNNGTLVVQSLHGVFKVKDTTTLQQHLVDGRDMIIIRMPKDFPPFPQKLKFREPQREERICLVTTNFQTKSMSSMVSDTSCTFPSGDGIFWKHWIQTKDGQCGSPLVSTRDGFIVGIHSASNFTNTNNYFTSVPKNFMELLTNQEAQQWVSGWRLNADSVLWGGHKVFMVKPEEPFQPVKEATQL

Variants of: B1
Experiment: raw area under fraction-flipped curve 0-4 h after induction (AUC4h, not background-subtracted), DNA-recorder readout of cleavage of the substrate (dimensionless); higher = more cleavage of the substrate by the protease variant
Conditions: temperature: 34 °C; time window: 0-4 h after rhamnose induction
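Further: Bxb1 expression induced with 0.2% (w/v) L-rhamnose at OD600 near 0.5, cultures sampled hourly, flipped fraction per protease–substrate barcode pair counted by paired-end Illumina sequencing.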

## MGESLFKGPRDYNPISSSICHLTNESDGHTTSLYGIGFGPFIITNKHLFRRNNGTLVVQSLHGVFKVKDTTTLQQHLVDGRDMIIIRMPKDFPPFPQKLKFREPQREERICLVTTNFQTKSMSSMVSDTSCTFPSGDGIFWKHWIQTKDGQCGSPLVSTRDGFIWGIHSASNFTNTNNYFTSVPKNFMELLTNQEAQQWVSGWRLNADSVLWGGHKVFMVKPEEPFQPVKEATQL [V165W]
  area with substrate ECLYFQS: 0.0504
  area with substrate EDLYFQS: 0.0386
  area with substrate EELYFQS: 0.0729
  area with substrate EGLYFQS: 0.0637
  area with substrate EKLYFQS: 0.0564
  area with substrate EMLYFQS: 0.0619
  area with substrate EPLYFQS: 0.0458
  area with substrate EQLYFQS: 0.099
  area with substrate ERLYFQS: 0.0516
  area with substrate ESLYFQS: 0.0408
  area with substrate EVLYFQS: 0.0452

## MGESLFKGPRDYNPISSSICHLTNESDGHTTSLYGIGFGPFIITNKHLFRRNNGTLVVQSLHGVFKVKDTTTLQQHLVDGRDMIIIRMPKDFPPFPQKLKFREPQREERICLVTTNFQTKSMSSMVSDTSCTFPSGDGIFWKHWIQTKDGQCGSPLVSTRDGFIYGIHSASNFTNTNNYFTSVPKNFMELLTNQEAQQWVSGWRLNADSVLWGGHKVFMVKPEEPFQPVKEATQL [V165Y]
  area with substrate ECLYFQS: 0.0544
  area with substrate EDLYFQS: 0.0494
  area with substrate EELYFQS: 0.0581
  area with substrate EILYFQS: 0.0456
  area with substrate EKLYFQS: 0.0493
  area with substrate EMLYFQS: 0.0601
  area with substrate EPLYFQS: 0.0538
  area with substrate EQLYFQS: 0.0526
  area with substrate ERLYFQS: 0.0558
  area with substrate ESLYFQS: 0.0557
  area with substrate ETLYFQS: 0.0569
  area with substrate EVLYFQS: 0.0609

## MGESLFKGPRDYNPISSSICHLTNESDGHTTSLYGIGFGPFIITNKHLFRRNNGTLVVQSLHGVFKVKDTTTLQQHLVDGRDMIIIRMPKDFPPFPQKLKFREPQREERICLVTTNFQTKSMSSMVSDTSCTFPSGDGIFWKHWIQTKDGQCGSPLVSTRDGFIVGCHSASNFTNTNNYFTSVPKNFMELLTNQEAQQWVSGWRLNADSVLWGGHKVFMVKPEEPFQPVKEATQL [I167C]
  area with substrate ECLYFQS: 0.0837
  area with substrate EDLYFQS: 0.135
  area with substrate EELYFQS: 0.098
  area with substrate EGLYFQS: 0.0647
  area with substrate EILYFQS: 0.0808
  area with substrate EKLYFQS: 0.0744
  area with substrate ELLYFQS: 0.0799
  area with substrate EMLYFQS: 0.0954
  area with substrate EPLYFQS: 0.101
  area with substrate ESLYFQS: 0.0874
  area with substrate ETLYFQS: 0.0779
  area with substrate EWLYFQS: 0.0766
  area with substrate EYLYFQS: 0.0897

## MGESLFKGPRDYNPISSSICHLTNESDGHTTSLYGIGFGPFIITNKHLFRRNNGTLVVQSLHGVFKVKDTTTLQQHLVDGRDMIIIRMPKDFPPFPQKLKFREPQREERICLVTTNFQTKSMSSMVSDTSCTFPSGDGIFWKHWIQTKDGQCGSPLVSTRDGFIVGIHPASNFTNTNNYFTSVPKNFMELLTNQEAQQWVSGWRLNADSVLWGGHKVFMVKPEEPFQPVKEATQL [S169P]
  area with substrate ECLYFQS: 0.0618
  area with substrate EDLYFQS: 0.0375
  area with substrate EELYFQS: 0.0571
  area with substrate EFLYFQS: 0.0544
  area with substrate EGLYFQS: 0.0479
  area with substrate EHLYFQS: 0.066
  area with substrate EKLYFQS: 0.0425
  area with substrate ELLYFQS: 0.0558
  area with substrate EMLYFQS: 0.0362
  area with substrate EPLYFQS: 0.0605
  area with substrate EQLYFQS: 0.0269
  area with substrate ERLYFQS: 0.0657
  area with substrate ESLYFQS: 0.0629
  area with substrate EVLYFQS: 0.06
  area with substrate EYLYFQS: 0.0625

## MGESLFKGPRDYNPISSSICHLTNESDGHTTSLYGIGFGPFIITNKHLFRRNNGTLVVQSLHGVFKVKDTTTLQQHLVDGRDMIIIRMPKDFPPFPQKLKFREPQREERICLVTTNFQTKSMSSMVSDTSCTFPSGDGIFWKHWIQTKDGQCGSPLVSTRDGFIVGIHSASTFTNTNNYFTSVPKNFMELLTNQEAQQWVSGWRLNADSVLWGGHKVFMVKPEEPFQPVKEATQL [N172T]
  area with substrate ECLYFQS: 0.0616
  area with substrate EELYFQS: 0.0716
  area with substrate EGLYFQS: 0.0597
  area with substrate EMLYFQS: 0.0939
  area with substrate EPLYFQS: 0.0771
  area with substrate ERLYFQS: 0.0702
  area with substrate ESLYFQS: 0.0482
  area with substrate ETLYFQS: 0.078
  area with substrate EYLYFQS: 0.0658

## MGESLFKGPRDYNPISSSICHLTNESDGHTTSLYGIGFGPFIITNKHLFRRNNGTLVVQSLHGVFKVKDTTTLQQHLVDGRDMIIIRMPKDFPPFPQKLKFREPQREERICLVTTNFQTKSMSSMVSDTSCTFPSGDGIFWKHWIQTKDGQCGSPLVSTRDGFIVGIHSASNCTNTNNYFTSVPKNFMELLTNQEAQQWVSGWRLNADSVLWGGHKVFMVKPEEPFQPVKEATQL [F173C]
  area with substrate ECLYFQS: 0.0547
  area with substrate EELYFQS: 0.0727
  area with substrate EILYFQS: 0.0565
  area with substrate EMLYFQS: 0.0788
  area with substrate EPLYFQS: 0.097
  area with substrate EQLYFQS: 0.104
  area with substrate ESLYFQS: 0.0745
  area with substrate ETLYFQS: 0.11
  area with substrate EYLYFQS: 0.0795

## MGESLFKGPRDYNPISSSICHLTNESDGHTTSLYGIGFGPFIITNKHLFRRNNGTLVVQSLHGVFKVKDTTTLQQHLVDGRDMIIIRMPKDFPPFPQKLKFREPQREERICLVTTNFQTKSMSSMVSDTSCTFPSGDGIFWKHWIQTKDGQCGSPLVSTRDGFIVGIHSASNNTNTNNYFTSVPKNFMELLTNQEAQQWVSGWRLNADSVLWGGHKVFMVKPEEPFQPVKEATQL [F173N]
  area with substrate ECLYFQS: 0.075
  area with substrate EDLYFQS: 0.103
  area with substrate EELYFQS: 0.0997
  area with substrate EGLYFQS: 0.0568
  area with substrate EILYFQS: 0.0555
  area with substrate EKLYFQS: 0.0782
  area with substrate EPLYFQS: 0.0867
  area with substrate ERLYFQS: 0.0626
  area with substrate ESLYFQS: 0.0811
  area with substrate EVLYFQS: 0.0795
  area with substrate EYLYFQS: 0.0841

## MGESLFKGPRDYNPISSSICHLTNESDGHTTSLYGIGFGPFIITNKHLFRRNNGTLVVQSLHGVFKVKDTTTLQQHLVDGRDMIIIRMPKDFPPFPQKLKFREPQREERICLVTTNFQTKSMSSMVSDTSCTFPSGDGIFWKHWIQTKDGQCGSPLVSTRDGFIVGIHSASNYTNTNNYFTSVPKNFMELLTNQEAQQWVSGWRLNADSVLWGGHKVFMVKPEEPFQPVKEATQL [F173Y]
  area with substrate ECLYFQS: 0.0468
  area with substrate EDLYFQS: 0.128
  area with substrate EGLYFQS: 0.0882
  area with substrate EHLYFQS: 0.121
  area with substrate EILYFQS: 0.0894
  area with substrate EMLYFQS: 0.104
  area with substrate EPLYFQS: 0.155
  area with substrate EQLYFQS: 0.0991
  area with substrate ESLYFQS: 0.0874
  area with substrate ETLYFQS: 0.131
  area with substrate EVLYFQS: 0.0788

## MGESLFKGPRDYNPISSSICHLTNESDGHTTSLYGIGFGPFIITNKHLFRRNNGTLVVQSLHGVFKVKDTTTLQQHLVDGRDMIIIRMPKDFPPFPQKLKFREPQREERICLVTTNFQTKSMSSMVSDTSCTFPSGDGIFWKHWIQTKDGQCGSPLVSTRDGFIVGIHSASNFNNTNNYFTSVPKNFMELLTNQEAQQWVSGWRLNADSVLWGGHKVFMVKPEEPFQPVKEATQL [T174N]
  area with substrate ECLYFQS: 0.104
  area with substrate EDLYFQS: 0.123
  area with substrate EELYFQS: 0.108
  area with substrate EFLYFQS: 0.0623
  area with substrate EHLYFQS: 0.158
  area with substrate EILYFQS: 0.107
  area with substrate ELLYFQS: 0.113
  area with substrate EPLYFQS: 0.119
  area with substrate EQLYFQS: 0.149
  area with substrate ESLYFQS: 0.101
  area with substrate EVLYFQS: 0.0996
